In all, about 48,000 compounds went through this assay and about 450 (0.94%) were called active. About 19% were inconclusive and are not listed. The call rests on the fitted dose curve; in most records, active means well fitted inhibition curve with a large enough effect; inconclusive means small, poorly fitted or top-dose-only effect; inactive means no such curve, though single readings can be large or run the other way. Some of the results follow.
test: Primary qHTS for Identification of Small Molecule Inhibitors of Huntingtin Promoter Activity; conditions: HEK293 HTT promoter firefly luciferase reporter (activity 0% = vehicle and -100% = no light), 24 h; series mostly up to 57.5 µM; activity change, negative = inhibition: at the top concentration; further: nearly all actives have a fitted effect of over 50% in size
In short: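 Firefly luciferase signal from promoter-reporter HEK293 cells was scaled between vehicle (0%) and zero RLU (-100%). Compounds were tested at final concentrations of up to 57.5 uM over 24 h at 37 degrees C. PTC124 at 50 uM final served as control inhibitor.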

Activity change, negative = inhibition, inactive:
COc1ccc(CNCCC(c2ccc(C)cc2)c2ccco2)cc1 (centres undefined) -28%, Cc1cccc(OCC(=O)Nc2ccc(S(=O)(=O)Nc3onc(C)c3C)cc2)c1C -8.18%, Cc1ccc2oc(=O)c3cc(C(=O)Nc4ccc(C)c(F)c4)sc3c2c1 1.3%, CCc1nnc(NC(=O)CSc2nc3c([nH]c4ccccc43)c(=O)n2-c2ccc(F)cc2)s1 -13.4%, COc1ccccc1/C=C/c1onc(C)c1S(=O)(=O)N1CCC(C(=O)N2CCC(C)CC2)CC1 -3.88%, Cc1cccn2c(=O)cc(COc3ccc(NC(=O)C(C)C)cc3)nc12 -11.3%, Cc1ccc(-n2nc(C)c3c(C)cc(=O)n(CC(=O)Nc4cc(Cl)ccc4C)c32)cc1 -23.5%, Nc1ccc2oc(-c3ccccc3Br)nc2c1 -16.7%, COc1ccc(C(=O)NCc2nc(-c3cccc(C)c3)no2)cc1OC -18.1%, Cc1nc(-c2ccc(S(=O)(=O)NCc3ccc(F)cc3)cc2)co1 -28.9%, COc1cccc(C(=O)COC(=O)c2cc(-c3cccs3)nc3ccccc23)c1 -19.7%, Cc1cc(NS(=O)(=O)c2cn(C)c(C)n2)ccc1Br 5.08%, COc1cccc(CNC(=O)CCc2c(C)nc3c4c(C)cc(C)nc4nn3c2C)c1 -7.82%, Cc1ccccc1OCC(=O)Nc1nnc(SCc2cc(=O)n3cc(Cl)ccc3n2)s1 5.28%, Cc1ccc(C)c(CN2C(=O)c3ccccc3S(=O)(=O)c3ccc(C(=O)NCCc4ccc(Cl)cc4)cc32)c1 -12.9%, CCc1ccccc1NC(=O)C1CCN(c2nc3ccccc3[nH]2)CC1 8.15%, Cc1ccc(CCNc2nc3ccccc3c3nc(-c4cccnc4)nn23)cc1 -2.02%, CC(C)CCSc1nnc2n(-c3ccccc3)c(=O)c3c4c(sc3n12)CC(C)CC4 (centres undefined) -12.3%, CCOC(=O)c1c(C)[nH]c(C)c1S(=O)(=O)NCC(=O)NCc1cccc(Br)c1 -21.7%, CCc1ccc(NC(=O)Cn2c(=O)nc(-c3ccccc3F)c3cc(Cl)ccc32)cc1 23.4%, COC(=O)c1ccccc1N(C)S(=O)(=O)c1cc2c3c(c1)CC(=O)N3CCC2 -7.88%, Cc1ccc2cc3cc(C(=O)N4CCN(c5ccccc5)CC4)sc3nc2c1 13.2%, O=C(Cn1cc(S(=O)(=O)Cc2cccc(Cl)c2)c2ccccc21)NCc1ccccc1Cl -28.4%, CCCNc1ncnc2c1c(-c1ccccc1)cn2-c1ccccc1 -26.8%, CCn1cc(C(=O)N2CCN(c3cccc(C)c3)C(C)C2)c(=O)c2cc(S(=O)(=O)N3CCOCC3)ccc21 (centres undefined) -4.58%, COc1ccc(-c2nsc(NC(=O)c3oc4ccccc4c3C)n2)cc1 7.15%, Cc1coc2c(C)c3oc(=O)c(CCC(=O)N4CCCCC4)c(C)c3cc12 -22.7%, CN(C)c1ccc(CNC(=O)CCCN2C(=O)CCn3nc(-c4cn(C)c5ccccc45)cc32)cc1 -9.31%, C[C@]12CC[C@@H]3c4ccc(O)cc4CC[C@H]3[C@@H]1CC[C@@H]2OC(=O)CCC1CCCC1 10.2%, COCCn1c(C)cc(O)c(C(c2ccccc2Cl)N2CCCCC2)c1=O (centres undefined) -12.7%, CNc1nccc(-c2cccnc2Oc2cc(C(=O)Nc3cccc(C(F)(F)F)c3)ccc2C)n1 -28.5%, CCCN1CCN(CCCNC(=O)c2cc3c(s2)-c2ccccc2OC3)CC1 -10.6%, Cc1c(NS(=O)(=O)c2ccc(Cl)cc2)c(=O)n(-c2ccccc2)n1C -5.43%, Cc1nc2c(c(C)c1CCC(=O)Nc1ccc(F)cc1)c(=O)n(C)c(=O)n2C -16.7%, COc1ccc(C2=NN(CCC(=O)NCCc3ccccc3)C(=O)CC2)cc1 -5.31%, COCCn1c(C)cc(O)c(C(c2ccccc2F)N2CCN(c3ccccc3)CC2)c1=O (centres undefined) -2.16%, COc1ccc(NC(=O)Cn2nnc(-c3nc(-c4ccncc4)no3)c2N)cc1OC 3.02%, Cc1cccc(C)c1NC(=O)C1CCCN1S(=O)(=O)c1cccc2nsnc12 (centres undefined) -15.6%, Cc1ccc(NC(=O)c2cccc(NC(=O)N3CCSc4ncccc43)c2)cc1F 1.56%, CCOc1ccc(CNC(=O)c2ccc(NC(=O)N3CCSc4ncccc43)cc2)cc1 -27%, CCCN1C(=O)c2oc3cc(C)cc(C)c3c(=O)c2C1c1ccc(F)cc1 (centres undefined) -21.1%, CCN(CC)CCCNC(=O)CCc1c(C)nc2c(c1C)c(=O)n(C)c(=O)n2C -8.53%, COc1ccc(-c2cc(C(F)(F)F)nc(SCC(=O)Nc3ccc(O)cc3)n2)cc1OC -3.64%, Cc1ccc(C)c(NC(=O)c2cnc3sc(N4CCOCC4)nn3c2=O)c1 9.53%, CCCCOCCOC(=O)c1cccnc1 11.1%, Cc1cc(=O)c2cc(C(=O)Nc3cccc(C)c3C)ccc2[nH]1 -23.3%, COc1ccc(-c2nc3cc(NC(=O)COc4ccc(C)c(C)c4)ccc3o2)cc1 53.6%, COc1cc(OC)c(NC(=O)CCc2c(C)nc3ncnn3c2C)cc1Cl 2.23%, CN(Cc1ccccc1)c1ccc(-c2nc(-c3ccccn3)no2)cc1[N+](=O)[O-] -8.36%, COc1cccc(N2CCN(C(=O)c3cc4cc5cc(C)ccc5nc4s3)CC2)c1 20.3%, CCC(=O)N1c2ccccc2CC1C(=O)NCc1ccccc1Cl (centres undefined) 0.454%, Cc1cccc(NC(=O)CCn2cnnn2)c1C 12.9%, Cc1cccc(NC(=O)Cn2cc(C(=O)c3ccco3)c3ccccc32)c1 -22.3%, Cc1ccc(CNC(=O)c2ccc(Cn3c(=O)c4ccccc4n(CC(=O)Nc4ccc(C)cc4)c3=O)cc2)cc1 -8.77%, COc1ccc(Cn2cc(S(=O)(=O)c3ccc(Cl)cc3)c(=O)c3cc4c(cc32)OCO4)cc1 -27.6%, O=C(NC1(C(F)(F)F)C(=O)Nc2c1c(=O)[nH]c(=O)n2-c1ccc(Cl)cc1)c1ccccc1F (centres undefined) 1.63%, O=C(Nc1ccc2oc(-c3ccncc3)nc2c1)c1ccccc1Cl -18%, Cc1oc(-c2ccc(Cl)cc2)nc1CSc1nc2ncccc2[nH]1 -27.6%, CCc1ccccc1Nc1nn2c(=O)c3ccc(C(=O)NCCCOC(C)C)cc3nc2s1 -31.5%, O=C(OCc1cc(=O)n2nc(C3CCCCC3)sc2n1)c1ccc(F)cc1 -5.46%, CCOc1ccc(NC(=O)c2sc3nc4c(c(-c5ccc(OC)cc5)c3c2N)C(=O)CC(C)(C)C4)cc1 -3.71%, CCOc1ccc(-n2cc(-c3ccccc3)c3c(N4CCN(c5ccccc5OC)CC4)ncnc32)cc1 -12.2%, COC(=O)c1c(NC(=O)/C(C#N)=C/c2ccccc2)sc2c1CCC2 -14.7%, COc1ccc(-c2noc(-c3cccnc3N3CCN(c4ccc(OC)cc4)CC3)n2)cc1 18.2%, CCCCN(CC)C(=O)CSc1c2c(nc3ccc(Cl)cc13)CCCC2 -21.7%, CCOC(=O)c1c(C)[nH]c(C)c1S(=O)(=O)N1CCCC(C(=O)NCc2ccc(Cl)cc2)C1 (centres undefined) -20.4%, CCOCCCNC(=O)CN1C(=O)COc2ccc(S(=O)(=O)N3CCCC3)cc21 -7.67%, COc1ccccc1Nc1cc(C(=O)NC2CCC(C)CC2)c2ccccc2n1 (centres undefined) -5.78%, CCN(C(=O)Nc1cn(CC(C)C)c(=O)c2ccccc12)c1cc(C)ccc1C -20.6%, Cc1ccc(CNC(=O)CCn2cnc3ccccc3c2=O)cc1 3.34%, Cc1ccc2nc(Nc3ccc(C)c(F)c3)c3nncn3c2c1 5.86%, Cc1c(Cl)cccc1NC(=O)C1CCN(c2ncnc3c2nc2n3CCCCC2)CC1 -2.58%, CCn1nc(C)c(CCN(C)C(=O)Nc2cc(OC)c(OC)c(OC)c2)c1C -0.762%, O=C(CS(=O)Cc1ccco1)NCC=CCOc1cc(CN2CCCCC2)ccn1 (centres undefined) 37.5%, Cc1ccc(N2CC(NC(=O)c3ccc(S(=O)(=O)N4CCOCC4)cc3)CC2=O)cc1 (centres undefined) -30.5%, CCOC(=O)c1cnn(-c2ccc(C(=O)Nc3cccc(C(C)=O)c3)cc2)c1N -10.2%, COc1ccc2cc(C(=O)NCc3ccc4c(c3)CCN4C(=O)c3ccc(F)cc3)[nH]c2c1 -23%, O=C(CCn1c(=O)c2cccn2c2cccnc21)N1CCN(c2ccccc2F)CC1 -4.74%, Fc1cccc(-c2nnn3c2nc(NCCc2ccccc2)c2ccccc23)c1 -6.44%, Cc1cccc(OCC(=O)Nc2ccc(-c3nc4ccccc4o3)cc2)c1C 14.6%, CC(C)CNC(=O)N1[C@H](c2cccs2)[C@@H](C)C(=O)[C@@H](C)[C@@H]1c1cccs1 -18%, COc1ccc(C)cc1NS(=O)(=O)c1c(C(=O)N2CCCCCC2)c(C)n(C)c1C -1.71%, COc1ccc(CC(=O)NCCc2csc(-c3cccc(C)c3)n2)cc1 4.67%, Cc1ccc(-n2c(=O)[nH]c3cc(C(=O)NCc4ccccc4)ccc3c2=O)cc1 -11.3%, Cc1nc(-c2ccccc2)sc1-c1ccc(SCC(=O)NCc2ccc(Cl)cc2)nn1 14.6%, CC(CNC(=O)c1nnc(Cc2ccc(F)cc2)o1)c1ccccc1 (centres undefined) -22%, Cc1ccc(-n2nc3c(=O)n(CC(=O)NCCC(C)C)nc(C)c3c2C)cc1 -0.532%, Nc1ncn([C@H]2C[C@H](O)[C@@H](CO)O2)c(=O)n1, COCCCNC(=O)Cn1c(=O)nc(-c2ccccc2)c2ccccc21 0.008%, NCCCCNCCCN 107%, CCCCC12CN3CC(C)(CN(C1)C3c1ccc(O)c(OC)c1)C2=O (centres undefined) -6.57%, Cc1cccn2c(=O)c(C(=O)NCCc3ccccc3)cnc12 -18.2%, COc1cccc(NC(=O)CSc2nccn2C2CCCC2)c1 12.4%, C[C@@H](c1ncncc1F)C(O)(Cn1cncn1)c1ccc(F)cc1F (some centres undefined) 5.98%, O=C(NC1CCCC1)c1ccc2c(c1)N(Cc1ccccc1)C(=O)c1ccccc1S2 -17.7%, CC(C)(C(=O)c1cccnc1)c1cccnc1 9.25%, Cc1ccc(F)cc1NC(=O)Cn1c(C)cc(C)c(C#N)c1=O 2.53%, COc1ccc(N2CCN(Cc3nc4c(c(=O)[nH]c(=O)n4C)n3CC(C)C)CC2)cc1 -1.56%, O=C(NCc1cccc(Br)c1)c1ccc(NC(=O)N2CCCCc3ccccc32)cc1 -19.5%

Reference: PubChem BioAssay AID1508623 (National Center for Advancing Translational Sciences (NCATS), 2021)
